Test results taken from the supplement of paper PMC4604168 (melanoma cell lines).
This is one part of the list. Repeats are few or missing, and single values can be far off.

Experiments:
Assay in all cases: cell count relative to DMSO control; melanoma cells; higher = more viable cells
Details in all cases: library dose: low library concentration; 72 h
MZ2-MEL = system: MZ2-MEL
MeWo = system: MeWo
RPMI7951 = system: RPMI7951
RVH-421 = system: RVH-421
SkMel28 = system: SkMel28
SkMel30 = system: SkMel30
SkMel5 = system: SkMel5
UACC257 = system: UACC257
UACC62 = system: UACC62
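Note: cell number obtained by counting DAPI-stained nuclei in high-throughput microscope images with image analysis software, screen run in 1,536-well plates.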

Row | Compound | cell count (MZ2-MEL) | cell count (MeWo) | cell count (RPMI7951) | cell count (RVH-421) | cell count (SkMel28) | cell count (SkMel30) | cell count (SkMel5) | cell count (UACC257) | cell count (UACC62)
1 | COc1cc2c(Oc3ccc4[nH]c(C)cc4c3F)ncnc2cc1OCCCN1CCCC1 [cediranib] + COc1ccc2c(c1)CCC1C2CCC2(C)C(NCCCCCCN3C(=O)C=CC3=O)CCC12 [U73122] (first compound 0.4 µM, partner dose 0.4 µM) | 100% | 119% | 74.7% | 98% | 90.8% | 105% | 107% | 106% | 88.3%
2 | CCc1ccc(CCOc2ccc(CC3SC(=O)NC3=O)cc2)nc1 (stereo unspecified) [pioglitazone] + O=C(Nc1ccccc1)c1cc([N+](=O)[O-])ccc1Cl [GW9662] (first compound 2 µM, partner dose 2 µM) | 95.3% | 100% | 111% | 102% | 88.7% | 102% | 98.1% | 91.5% | 104%
3 | COc1cc2c(Oc3ccc4[nH]c(C)cc4c3F)ncnc2cc1OCCCN1CCCC1 [cediranib] + COc1cc2ncnc(Nc3ccc(Oc4ccccc4)cc3)c2cc1OC [SrcI1] (first compound 0.4 µM, partner dose 2 µM) | 94.2% | 98.3% | 94.4% | 102% | 99.2% | 105% | 86.4% | 94.2% | 94.2%
4 | CN(NC(=O)CC(=O)NN(C)C(=S)c1ccccc1)C(=S)c1ccccc1 + Oc1nc(-c2ccc(C(F)(F)F)cc2)nc2c1CSCC2 [XAV939] (first compound 0.006 µM, partner dose 2 µM) | 91.8% | 94.3% | 64.6% | 59.8% | 85.6% | 93.3% | 67.7% | 80.7% | 107%
5 | CC(C)(C)c1cnc(CSc2cnc(NC(=O)C3CCNCC3)s2)o1 + CCCCCCCCCCCC1=C(O)C(=O)C=C(O)C1=O [Embelin] (first compound 0.01 µM, partner dose 1.2 µM) | 101% | 103% | 95.3% | 100% | 107% | 103% | 116% | 99.3% | 85.1%
6 | Cc1ccc(NC(=O)c2cccc(N(C)C)c2)cc1NC(=O)c1ccc(O)cc1 + COC(=O)c1sccc1S(=O)(=O)Nc1ccc(Nc2ccccc2)cc1OC [GSK0660] (first compound 2 µM, partner dose 1 µM) | 71.9% | 95.3% | 86.6% | 123% | 89.4% | 87.8% | 99% | 98.1% | 92.2%
7 | COc1cc2c(Oc3ccc4[nH]c(C)cc4c3F)ncnc2cc1OCCCN1CCCC1 [cediranib] + COc1ccc(-c2ccc3c(N4CCOCC4)nc(N4C[C@@H](C)O[C@@H](C)C4)nc3n2)cc1CO [KU0063794] (first compound 0.4 µM, partner dose 0.02 µM) | 97.2% | 113% | 119% | 96.1% | 102% | 96.6% | 101% | 61.4% | 108%
8 | Cc1ccc(NC(=O)c2cccc(N(C)C)c2)cc1NC(=O)c1ccc(O)cc1 + CCN(CC)CCCCNc1ncc2cc(-c3cc(OC)cc(OC)c3)c(NC(=O)NC(C)(C)C)nc2n1 [PD173074] (first compound 2 µM, partner dose 0.1 µM) | 68.2% | 93.4% | 76% | 95.1% | 95.9% | 83.1% | 102% | 84.1% | 86.9%
9 | CCc1ccc(CCOc2ccc(CC3SC(=O)NC3=O)cc2)nc1 (stereo unspecified) [pioglitazone] + COc1ccc(COc2ccc(Cc3cnc(N)nc3N)cc2OC)cc1 [GW2580] (first compound 2 µM, partner dose 1 µM) | 102% | 95.8% | 88.6% | 118% | 102% | 108% | 102% | 82.7% | 106%
10 | CCc1ccc(CCOc2ccc(CC3SC(=O)NC3=O)cc2)nc1 (stereo unspecified) [pioglitazone] + COc1cc(N2CCC(N3CCN(C)CC3)CC2)ccc1Nc1ncc(Cl)c(Nc2ccccc2S(=O)(=O)C(C)C)n1 [NVP-TAE684] (first compound 2 µM, partner dose 0.08 µM) | 106% | 77.5% | 110% | 98.4% | 67.1% | 110% | 80.1% | 88.7% | 92%
11 | COc1cc2c(Oc3ccc4[nH]c(C)cc4c3F)ncnc2cc1OCCCN1CCCC1 [cediranib] + COc1cc(N2CCC(N3CCN(C)CC3)CC2)ccc1Nc1ncc(Cl)c(Nc2ccccc2S(=O)(=O)C(C)C)n1 [NVP-TAE684] (first compound 0.4 µM, partner dose 0.08 µM) | 93.7% | 87.2% | 99% | 109% | 89.9% | 105% | 90.6% | 68.4% | 80%
12 | COc1cc2c(Oc3ccc4[nH]c(C)cc4c3F)ncnc2cc1OCCCN1CCCC1 [cediranib] + CCN(CC)CCCCNc1ncc2cc(-c3cc(OC)cc(OC)c3)c(NC(=O)NC(C)(C)C)nc2n1 [PD173074] (first compound 0.4 µM, partner dose 0.1 µM) | 103% | 103% | 90% | 98.4% | 91.4% | 111% | 107% | 117% | 95.6%
13 | COc1cc2c(Oc3ccc4[nH]c(C)cc4c3F)ncnc2cc1OCCCN1CCCC1 [cediranib] + CCc1ccc(CCOc2ccc(CC3SC(=O)NC3=O)cc2)nc1 [pioglitazone] (first compound 0.4 µM, partner dose 2 µM) | 99.2% | 108% | 104% | 87.1% | 84% | 124% | 111% | 98.2% | 93.6%
14 | CCc1ccc(CCOc2ccc(CC3SC(=O)NC3=O)cc2)nc1 (stereo unspecified) [pioglitazone] + O=S(=O)(c1ccccc1)N(CC(F)(F)F)c1ccc(C(O)(C(F)(F)F)C(F)(F)F)cc1 [T0901317] (first compound 2 µM, partner dose 1.4 µM) | 102% | 98.4% | 95.2% | 148% | 73.1% | 93.1% | 84.5% | 74.5% | 76%
15 | CCc1ccc(CCOc2ccc(CC3SC(=O)NC3=O)cc2)nc1 (stereo unspecified) [pioglitazone] + Cn1cc(/C=C2\C(=O)Nc3cccnc32)c2ccccc21 [GW441756] (first compound 2 µM, partner dose 0.4 µM) | 94.2% | 100% | 102% | 90.6% | 96.1% | 120% | 90.5% | 92.2% | 96.5%
16 | CCc1ccc(CCOc2ccc(CC3SC(=O)NC3=O)cc2)nc1 (stereo unspecified) [pioglitazone] + COc1ccc2c(c1)CCC1C2CCC2(C)C(NCCCCCCN3C(=O)C=CC3=O)CCC12 [U73122] (first compound 2 µM, partner dose 0.4 µM) | 94.4% | 100% | 102% | 116% | 98.2% | 94.6% | 86.7% | 75.1% | 105%
17 | CCc1ccc(CCOc2ccc(CC3SC(=O)NC3=O)cc2)nc1 (stereo unspecified) [pioglitazone] + Oc1cc(-c2nc(-c3ccccc3)[nH]c2-c2ccncc2)ccc1Cl [L779450] (first compound 2 µM, partner dose 0.2 µM) | 84.5% | 95.7% | 102% | 80% | 79.7% | 76.9% | 102% | 74.5% | 62.5%
18 | Cc1ccc(NC(=O)c2cccc(N(C)C)c2)cc1NC(=O)c1ccc(O)cc1 + O=c1cc(-c2cccc3c2Sc2ccccc2S3)oc(N2CCOCC2)c1 [KU55933] (first compound 2 µM, partner dose 1 µM) | 72.8% | 105% | 76.5% | 101% | 82.1% | 101% | 99.3% | 127% | 113%
19 | COc1cc2c(Oc3ccc4[nH]c(C)cc4c3F)ncnc2cc1OCCCN1CCCC1 [cediranib] + O=C(O)C(=O)Nc1sc2c(c1C(=O)O)CCNC2 [TCS401] (first compound 0.4 µM, partner dose 1.66667 µM) | 100% | 103% | 82.2% | 88% | 84.8% | 109% | 95.8% | 65.9% | 91.3%
20 | Cc1ccc(NC(=O)c2cccc(N(C)C)c2)cc1NC(=O)c1ccc(O)cc1 + COc1ccc(-c2ccc3c(N4CCOCC4)nc(N4C[C@@H](C)O[C@@H](C)C4)nc3n2)cc1CO [KU0063794] (first compound 2 µM, partner dose 0.02 µM) | 80.9% | 90.6% | 104% | 103% | 73.1% | 68.3% | 101% | 71.5% | 82.9%
21 | Cc1ccc(NC(=O)c2cccc(N(C)C)c2)cc1NC(=O)c1ccc(O)cc1 + COc1ccc2c(c1)CCC1C2CCC2(C)C(NCCCCCCN3C(=O)C=CC3=O)CCC12 [U73122] (first compound 2 µM, partner dose 0.4 µM) | 74.7% | 102% | 82.2% | 122% | 87.6% | 43% | 93.1% | 87.9% | 101%
22 | CC(C)(C)c1cnc(CSc2cnc(NC(=O)C3CCNCC3)s2)o1 + Oc1cc(-c2nc(-c3ccccc3)[nH]c2-c2ccncc2)ccc1Cl [L779450] (first compound 0.01 µM, partner dose 0.2 µM) | 78.1% | 107% | 78% | 97.9% | 91.6% | 95.8% | 112% | 89% | 85.3%
23 | CC(C)(C)c1cnc(CSc2cnc(NC(=O)C3CCNCC3)s2)o1 + COc1ccc(-c2ccc3c(N4CCOCC4)nc(N4C[C@@H](C)O[C@@H](C)C4)nc3n2)cc1CO [KU0063794] (first compound 0.01 µM, partner dose 0.02 µM) | 101% | 92.4% | 91.7% | 106% | 95.3% | 96.7% | 101% | 81.1% | 83%
24 | CN(NC(=O)CC(=O)NN(C)C(=S)c1ccccc1)C(=S)c1ccccc1 + CCN(CC)CCCCNc1ncc2cc(-c3cc(OC)cc(OC)c3)c(NC(=O)NC(C)(C)C)nc2n1 [PD173074] (first compound 0.006 µM, partner dose 0.1 µM) | 99.9% | 79.4% | 107% | 129% | 94.1% | 82% | 94.9% | 77.6% | 84.3%
